In PubChem BioAssay AID504332 (National Center for Advancing Translational Sciences (NCATS), 2011):
Among all 350,000 compounds or so, about 31,000 (8.9%) were called active. Inconclusive results, whose numbers are uncertain, are shown with a selection of clear calls. The call rests on the fitted dose curve; in most records, active means well fitted inhibition curve with a large enough effect; inconclusive means small, poorly fitted or top-dose-only effect; inactive means no such curve, though single readings can be large or run the other way. Potencies of inconclusive entries are doubtful fits and often do not repeat.

biological target: Histone-lysine N-methyltransferase EHMT2 (Homo sapiens) (UniProt Q96KQ7); experiment: qHTS Assay for Inhibitors of Histone Lysine Methyltransferase G9a; conditions: G9a H3K9 monomethylation, AlphaScreen, 2 h; activity, negative = inhibition: at 59 µM (top of the series) unless noted; further: nearly all actives have a fitted effect of over 75% in size
Method in brief: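 AlphaScreen read-out: biotin-H3K9 peptide (500 nM) methylation by 20 nM enzyme with 20 uM SAM, 2 h at room temperature after 15 min compound preincubation; anti-monomethyl H3K9 antibody plus donor/acceptor beads, 10 min dark.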
On the % scale 0 is the no-effect control and ±100 the full control effect; potency means the concentration at half of the fitted maximal effect; tags describe the fitted curve by direction and shape.

Sequence of UniProt Q96KQ7 (Q96KQ7 whole entry, looked up): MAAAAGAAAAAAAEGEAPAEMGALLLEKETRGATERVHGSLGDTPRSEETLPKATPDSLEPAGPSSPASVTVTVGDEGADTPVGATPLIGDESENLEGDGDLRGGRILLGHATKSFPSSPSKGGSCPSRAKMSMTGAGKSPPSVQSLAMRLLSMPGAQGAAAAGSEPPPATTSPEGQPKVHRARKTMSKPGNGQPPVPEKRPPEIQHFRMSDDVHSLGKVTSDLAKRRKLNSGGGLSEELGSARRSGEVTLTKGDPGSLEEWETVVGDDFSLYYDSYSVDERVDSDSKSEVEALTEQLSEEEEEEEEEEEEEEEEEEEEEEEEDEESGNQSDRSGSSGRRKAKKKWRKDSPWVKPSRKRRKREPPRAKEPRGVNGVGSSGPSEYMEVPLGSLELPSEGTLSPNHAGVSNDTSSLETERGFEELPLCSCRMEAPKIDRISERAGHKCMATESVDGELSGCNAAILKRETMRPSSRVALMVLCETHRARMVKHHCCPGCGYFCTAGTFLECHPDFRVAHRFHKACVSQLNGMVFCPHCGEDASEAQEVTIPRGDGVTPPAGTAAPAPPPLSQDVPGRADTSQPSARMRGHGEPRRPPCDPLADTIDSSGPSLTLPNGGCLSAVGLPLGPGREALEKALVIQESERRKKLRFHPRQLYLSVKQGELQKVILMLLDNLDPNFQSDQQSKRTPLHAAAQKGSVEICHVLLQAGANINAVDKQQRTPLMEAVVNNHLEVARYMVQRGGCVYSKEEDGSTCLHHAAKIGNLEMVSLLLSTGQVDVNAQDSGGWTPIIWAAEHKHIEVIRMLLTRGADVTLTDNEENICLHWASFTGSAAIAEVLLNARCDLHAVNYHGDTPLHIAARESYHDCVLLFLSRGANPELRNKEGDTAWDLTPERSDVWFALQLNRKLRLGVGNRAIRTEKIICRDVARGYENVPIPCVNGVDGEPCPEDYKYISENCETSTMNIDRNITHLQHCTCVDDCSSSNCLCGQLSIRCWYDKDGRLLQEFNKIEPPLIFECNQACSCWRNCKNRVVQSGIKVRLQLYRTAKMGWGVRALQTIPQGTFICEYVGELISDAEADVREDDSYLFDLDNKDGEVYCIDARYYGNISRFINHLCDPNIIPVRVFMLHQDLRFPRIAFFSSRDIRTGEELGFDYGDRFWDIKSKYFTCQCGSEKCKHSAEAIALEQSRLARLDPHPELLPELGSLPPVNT

Row | SMILES | activity, negative = inhibition | Potency
1 | Cc1nn(C)c2c1c(C(F)(F)F)cc(=O)n2C(C)C(=O)Nc1ccccc1F (stereo not drawn) | inactive: 30.5% | –
2 | COCCn1c(=S)[nH]c2sc3c(c2c1=O)CCCC3 | – | active: 7.94 µM
3 | CCn1c(CNC(=O)COc2ccc(C(C)C)cc2)nnc1SCC(=O)NC1CCCCC1C (stereo not drawn) | – | inconclusive: 39.8 µM [inhibitor, single point]
4 | Cc1cccc(N2CC(C(=O)Nc3nnc(SCC(=O)N4CCOCC4)s3)CC2=O)c1 (stereo not drawn) | – | active: 44.7 µM
5 | O=C(O)c1ccc(Cl)c(S(=O)(=O)Nc2cccc(C(=O)Nc3cccc(C(F)(F)F)c3)c2)c1 | – | inconclusive: 56.2 µM [inhibitor, partial curve, poor fit]
6 | COc1cccc(NC(=O)CN(C)C(C)C(=O)Nc2ccc(S(=O)(=O)N3CCOCC3)cc2)c1 (stereo not drawn) | – | inconclusive: 70.8 µM [inhibitor, partial curve]
7 | Cc1ccc(CC(=O)Nc2ccc(S(=O)(=O)Nc3nccc(C)n3)cc2)cc1 | – | inconclusive: 39.8 µM [inhibitor, single point]
8 | CCOc1ccc(S(=O)(=O)Nc2cc(S(=O)(=O)N(CC)CC)ccc2N2CCCC2)cc1 | – | inconclusive: 20 µM [inhibitor, single point]
9 | COc1ccc2c(c1)[nH]c1c(=O)n(CCN(C)C)cnc12 | – | inconclusive: 50.1 µM [inhibitor, partial curve]
10 | c1ccc(CNCCN2CCNCC2)nc1 | inactive: 3.62% [at 102 µM] | –
11 | CC(=O)n1cc(CO)c2ccccc21 | inactive: 7.28% [at 12.7 µM] | –
12 | CCn1c(SCC(=O)N/N=C/c2ccc(C)o2)nnc1-c1ccc(C)cc1 | – | active: 44.7 µM
13 | O=C(c1ccc(O)cc1)c1ccc(C(=O)c2ccc(O)cc2)cc1 | inactive: 2.43% [at 102 µM] | –
14 | Cc1cc(NC(=O)c2ccccc2)c(Cl)cc1N | – | inconclusive: 89.1 µM [inhibitor, single point]
15 | O=S(=O)(Nc1ccc(-c2cn3ccsc3n2)cc1)c1ccc2c(c1)OCCO2 | – | inconclusive: 31.6 µM [inhibitor, single point]
16 | O=C1CC(c2ccco2)Cc2nc(Nc3nc(-c4ccccc4)c4ccccc4n3)ncc21 (stereo not drawn) | – | inconclusive: 50.1 µM [inhibitor, partial curve]
17 | CC1CCC(NC(=O)c2cccc(S(=O)(=O)N3CCN(c4ccc(F)cc4)CC3)c2)CC1 (stereo not drawn) | – | inconclusive: 39.8 µM [inhibitor, partial curve, poor fit]
18 | Cc1ccc(Cn2c(SCc3ccc(C(=O)NC4CCCCC4)cc3)nc3ccncc32)cc1 | – | inconclusive: 7.94 µM [inhibitor, partial curve, poor fit]
19 | CN(CC(=O)NC(=O)NCc1ccccc1)Cc1ccc(Cl)c(Cl)c1 | – | inconclusive: 7.08 µM [inhibitor, partial curve, poor fit]
20 | CSc1cccc(NC(=O)C2CCN(c3nc4ccccc4[nH]3)CC2)c1 | inactive: -31.4% | –
21 | COc1cc(C)cc(C(=O)O)c1C1=C(O)c2cccc(O)c2C(=O)C1=O | inconclusive: -84% [inhibitor] | –
22 | CC(=O)c1cccc(-n2c(CCC(=O)O)ccc2-c2ccc(C)cc2)c1 | inactive: 17.6% [at 2.33 µM] | –

Row | SMILES | activity, negative = inhibition | Potency
23 | Cn1nc(-c2ccccc2)c(C(=O)Nc2ccc(Cl)cc2)c1Cl | inactive: 12% [at 102 µM] | –
24 | CN(C(=O)c1ccc2c(c1)N(Cc1cccc(Cl)c1)C(=O)c1ccccc1S2(=O)=O)C1CCCCC1 | inactive: -24.2% | –
25 | CC(C)OCCCNC(=O)c1cc2c(=O)n(C)c3ccccc3c2n1C | – | inconclusive: 89.1 µM [inhibitor, single point]
26 | Cc1csc(NC(=O)C(C)N2C(=O)c3ccccc3S2(=O)=O)n1 (stereo not drawn) | – | inconclusive: 89.1 µM [inhibitor, single point]
27 | C=CCN(Cc1cccc(OC)c1OC)C(=O)Oc1ccccc1 | inactive: 25.8% [at 12.7 µM] | –
28 | NC(=O)CN1C(=O)C(O)(CC(=O)/C=C\c2ccc3c(c2)OCO3)c2ccccc21 (stereo not drawn) | – | inconclusive: 89.1 µM [inhibitor, single point]
29 | COc1ccccc1NC1=Nc2cccc3cccc1c23 | – | inconclusive: 50.1 µM [inhibitor, partial curve]
30 | C/C(CCC(=O)O)=N/Nc1ccc([N+](=O)[O-])cc1[N+](=O)[O-] | – | inconclusive: 20 µM [inhibitor, single point]
31 | COc1ccc(NC(=O)COc2ccc(/C=C/c3cc[n+](C)cc3)cc2OC)cc1 | inactive: -4.52% [at 102 µM] | –
32 | CCN1CCN(C(=O)c2cc3ccc(OC)cc3[nH]2)CC1 | – | inconclusive: 79.4 µM [inhibitor, single point]
33 | CCCc1cc(-c2nc(N)ncc2-c2csc(C)n2)c(O)cc1OC | – | inconclusive: 35.5 µM [inhibitor, partial curve]
34 | O=C(CC1C(=O)NCCN1Cc1cccc(C(F)(F)F)c1)NC1CCOCC1 (stereo not drawn) | – | inconclusive: 56.2 µM [inhibitor, single point]
35 | Cc1cccc(NC(=O)c2ccc(C(=O)c3ccccc3)cc2)n1 | – | active: 7.94 µM
36 | COc1ccccc1C(=O)NC(CCSC)C(=O)N1CCC(Cc2ccccc2)CC1 (stereo not drawn) | – | inconclusive: 44.7 µM [inhibitor, partial curve]
37 | COc1ccc(NC(=O)[C@H](Cc2ccccc2)N2Cc3ccccc3C2=O)cc1OC | – | inconclusive: 0.199 µM [inhibitor, full curve, poor fit]
38 | Cc1ccc(NC(=O)CNC(=O)c2cccs2)c(O)c1 | – | inconclusive: 89.1 µM [inhibitor, partial curve, poor fit]
39 | C=CCn1c(O)c(N=NC(=S)Nc2ccc(OC)cc2)c2ccccc21 | – | active: 28.2 µM
40 | CCOC(=O)c1cc(C#N)c(SC)nc1-c1ccccc1 | inactive: 16.5% [at 2.33 µM] | –
41 | COc1ccc2c(c1)c(N1CCCC1=O)c(C(=O)Nc1ccc(OC)c(Cl)c1)n2C | – | inconclusive: 3.55 µM [inhibitor, partial curve, poor fit]
42 | CCOc1ccccc1OCC(=O)Nc1ccc(N2CCOCC2)cc1N1CCOCC1 | – | active: 56.2 µM
43 | CC(NC(=O)C(c1ccccc1)c1ccccc1)C(=O)O (stereo not drawn) | – | inconclusive: 89.1 µM [inhibitor, single point]
